{"source": "PubChem BioAssay AID485294", "about": "(National Center for Advancing Translational Sciences (NCATS), 2010)", "note": "About 150 (0.041%) of roughly 370,000 compounds were called active. Inconclusive means that the source gave no clear call. Such entries were picked first, then a sample of the others. The call rests on the fitted dose curve; in most records, active means well fitted inhibition curve with a large enough effect; inconclusive means small, poorly fitted or top-dose-only effect; inactive means flat fitted curve, though single readings scatter. No potency is given beside an inconclusive call; the fits are too rough. Potency means the concentration at half of the fitted maximal effect; tags describe the fitted curve by direction and shape.", "data": [{"biological_target": "Beta-lactamase (Escherichia coli (strain K12)) (UniProt P00811)", "sequence (P00811 whole entry, looked up)": "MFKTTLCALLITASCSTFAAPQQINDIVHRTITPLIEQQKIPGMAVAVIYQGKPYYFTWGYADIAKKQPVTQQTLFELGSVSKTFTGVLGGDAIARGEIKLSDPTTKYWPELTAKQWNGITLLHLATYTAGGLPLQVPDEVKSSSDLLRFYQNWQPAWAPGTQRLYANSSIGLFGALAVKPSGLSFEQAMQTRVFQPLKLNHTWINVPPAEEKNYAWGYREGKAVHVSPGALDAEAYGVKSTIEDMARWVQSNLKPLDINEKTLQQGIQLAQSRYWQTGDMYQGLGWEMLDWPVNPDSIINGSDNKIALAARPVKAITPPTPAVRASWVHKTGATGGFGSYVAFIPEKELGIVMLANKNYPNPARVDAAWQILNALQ", "experiment": "qHTS Inhibitors of AmpC Beta-Lactamase (assay with detergent); further: nearly all actives have a fitted effect of over 25% in size;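 on activity change, negative = inhibition: 0% = no-compound wells and -100% = no-enzyme wells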", "conditions": "AmpC hydrolysis of nitrocefin, absorbance 480 nm, 0.01% Triton; activity change, negative = inhibition: at 114 µM (top of the series)", "in_short": "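20 mM phosphate pH 7.0 + 0.01% (detergent screen) or 0.0001% Triton X-100; 5.3 nM AmpC reagent; cpd preinc 15 min RT; nitrocefin (800 uM stock) to start; A480 q20 s × 4 min; Activity was normalised to no-enzyme and no-compound control wells.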", "values": [{"smiles": "O=C(Nc1cc(F)ccc1F)c1ccc(CN2CC(=O)N3CCCCC3C2=O)cc1", "note": "(centres undefined)", "activity change, negative = inhibition": "inactive: 20.7%"}, {"smiles": "CCC1(CC)NC(=O)N(CC(=O)OC(C)C(=O)Nc2ccc(NC(C)=O)cc2)C1=O", "note": "(centres undefined)", "Potency": "inconclusive [inhibitor, full curve]"}, {"smiles": "Cc1ccc(NC(=O)c2c([N+](=O)[O-])c(C(C)(C)C)nn2C)c(C)c1", "Potency": "inconclusive [inhibitor, single point]"}, {"smiles": "COc1ccc(Br)cc1/C=C/C(=O)c1ccc(NC(C)=O)cc1", "activity change, negative = inhibition": "inactive: -7.22%"}, {"smiles": "COc1ccc(CNC(=O)C(=O)N2CCC3(CC2)OCCN3S(=O)(=O)c2ccc(C)cc2)cc1", "Potency": "inconclusive [inhibitor, partial curve]"}, {"smiles": "CCN(CC)CCOc1c(Br)ccc2c1sc1nc3n(c(=O)c12)CCC3", "activity change, negative = inhibition": "inactive: -13.6%"}, {"smiles": "O=C(Nc1cnn(Cc2ccc(F)cc2)c1)c1cnccn1", "activity change, negative = inhibition": "inactive: -12.7%"}, {"smiles": "C=CCN1C(=O)C(CC(=O)Nc2ccccc2)SC1=Nc1c(C)n(C)n(-c2ccccc2)c1=O", "note": "(centres undefined)", "Potency": "inconclusive [inhibitor, full curve, poor fit]"}, {"smiles": "CCOc1ccc2nc(SCC(=O)N3CCCCCC3)c(C#N)cc2c1", "Potency": "inconclusive [inhibitor, full curve]"}, {"smiles": "CCCCN1C(=O)C(=Nc2cccc3cnccc23)c2ccccc21", "activity change, negative = inhibition": "inactive: -13.1%"}, {"smiles": "COc1ccc(N2CCN(c3ncnc4c3cnn4-c3ccc(C)cc3C)CC2)cc1", "activity change, negative = inhibition": "inactive: -9.41%"}, {"smiles": "O=C(Nc1cnccn1)c1ccc(F)cc1Cl", "Potency": "inconclusive [inhibitor, full curve, poor fit]"}, {"smiles": "COc1ccc(CCNC(=O)CN(c2ccccc2OC)S(C)(=O)=O)cc1OC", "Potency": "inconclusive [inhibitor, full curve, poor fit]"}, {"smiles": "Cc1[nH]n(-c2ccc(Br)cc2)c(=O)c1C=Nc1ccc(S(=O)(=O)Nc2nccs2)cc1", "Potency": "inconclusive [inhibitor, partial curve, poor fit]"}, {"smiles": "O=C(c1ccco1)N1CCN(C(c2cccs2)c2nnnn2C2CCCCC2)CC1", "note": "(centres undefined)", "Potency": "inconclusive [inhibitor, full curve]"}, {"smiles": "COC(=O)c1c(N)sc(C(C)=O)c1C", "Potency": "inconclusive [inhibitor, partial curve]"}, {"smiles": "COc1ccccc1NC(=O)c1cc2n(n1)C(C(F)(F)F)CC(c1ccc3c(c1)OCO3)N2", "note": "(centres undefined)", "Potency": "inconclusive [inhibitor, full curve, poor fit]"}, {"smiles": "COc1cccc2sc(Nc3nc(-c4ccncc4)cs3)nc12", "activity change, negative = inhibition": "inactive: -0.295%"}, {"smiles": "Cc1nn(C(C)c2nc(-c3ccccc3)no2)c(C)c1[N+](=O)[O-]", "note": "(centres undefined)", "Potency": "inconclusive [inhibitor, partial curve, poor fit]"}, {"smiles": "N#Cc1nc(-c2ccccc2F)oc1NCCc1ccccn1", "Potency": "inconclusive [inhibitor, full curve, poor fit]"}, {"smiles": "COc1ccccc1CC(=O)NCCCc1ccccc1", "Potency": "inconclusive [inhibitor, partial curve, poor fit]"}, {"smiles": "COc1ccccc1NC(=O)c1ccc(NC(=O)COC(=O)CC(NC(=O)c2ccccc2Cl)c2ccccc2)cc1", "note": "(centres undefined)", "Potency": "inconclusive [inhibitor, full curve, poor fit]"}, {"smiles": "CCC(=O)c1ccc(OCC(=O)OCC(=O)N2CCCc3ccccc32)cc1", "Potency": "inconclusive [inhibitor, full curve, poor fit]"}, {"smiles": "Cc1cc(/C=N/NC(=O)c2c(Br)cnn2C)c(C)n1-c1cccc(Br)c1", "Potency": "inconclusive [inhibitor, full curve]"}, {"smiles": "CC(C)CCSc1nc(N)c(C#N)cc1C#N", "Potency": "inconclusive [inhibitor, single point]"}, {"smiles": "O=C(/C=C/c1ccc(OCc2cccc(Cl)c2)cc1)N1CCOCC1", "activity change, negative = inhibition": "inactive: 1.04%"}, {"smiles": "CCN(CC)S(=O)(=O)c1ccc(NC(=O)C(C)N(c2ccc(OC)cc2)S(C)(=O)=O)cc1", "note": "(centres undefined)", "Potency": "inconclusive [inhibitor, partial curve, poor fit]"}, {"smiles": "Cc1ccc(-c2ccccc2NC(=O)CCl)o1", "activity change, negative = inhibition": "inactive: 1.05%"}, {"smiles": "CCOC(=O)C1=C(C)NC(=O)N(C(C)=O)C1c1ccc(Cl)cc1", "note": "(centres undefined)", "Potency": "inconclusive [inhibitor, partial curve, poor fit]"}, {"smiles": "CS/C(N)=N/N=C/c1ccc([N+](=O)[O-])cc1", "activity change, negative = inhibition": "inactive: -11.1%"}, {"smiles": "O=[N+]([O-])c1ccc(Cl)cc1Sc1nc2ccccc2o1", "activity change, negative = inhibition": "inactive: -13.2%"}, {"smiles": "Cc1cc(C)cc(N/C(N)=N/c2nc(C)cc(C)n2)c1", "Potency": "inconclusive [inhibitor, full curve, poor fit]"}, {"smiles": "CC1CCCCC1NC(=O)COC(=O)c1ccc2c(c1)OCCO2", "note": "(centres undefined)", "Potency": "inconclusive [inhibitor, partial curve, poor fit]"}, {"smiles": "CCOc1nc(NCCO)nc(Nc2ccc([N+](=O)[O-])cc2)n1", "Potency": "inconclusive [inhibitor, partial curve, poor fit]"}, {"smiles": "COCCN(C(=O)COC(=O)c1ccc(Cl)nc1)c1c(N)n(Cc2ccccc2)c(=O)[nH]c1=O", "Potency": "inconclusive [inhibitor, full curve, poor fit]"}, {"smiles": "COCCC(=O)Nc1ccc2c(c1)CN(C(=O)CSC)CC2", "activity change, negative = inhibition": "inactive: -1.71%"}, {"smiles": "N#CCCN(C(=O)CN1C(=O)NC2(CCCC2)C1=O)c1ccccc1F", "Potency": "inconclusive [inhibitor, full curve, poor fit]"}, {"smiles": "O=C1CCC(=O)c2oc3ccccc3c2N1", "Potency": "inconclusive [inhibitor, partial curve, poor fit]"}, {"smiles": "Cc1oc2cc(O)ccc2c(=O)c1Oc1ccccc1Br", "Potency": "inconclusive [inhibitor, full curve, poor fit]"}, {"smiles": "O=C(Nc1cccc(Cl)c1)Nc1ccc2nccnc2c1", "activity change, negative = inhibition": "inactive: -13.9%"}, {"smiles": "COc1cccc(CN2CCN(Cc3[nH]c4ccccc4c3C)CC2CCO)c1", "note": "(centres undefined)", "activity change, negative = inhibition": "inactive: 1.28%"}, {"smiles": "CCOC(=O)N1CCN(C(=O)c2ccccc2NC(=O)c2ccc(C(C)(C)C)cc2)CC1", "activity change, negative = inhibition": "inactive: 2.2%"}, {"smiles": "CCOc1ccc(C(=O)Nc2cc(C)on2)cc1", "Potency": "inconclusive [inhibitor, single point]"}, {"smiles": "CC(NC(=O)C1CCC1)c1ccc2c(c1)OCO2", "note": "(centres undefined)", "Potency": "inconclusive [inhibitor, partial curve, poor fit]"}, {"smiles": "COc1ccc(S(=O)(=O)N2CCCC(C(=O)Nc3cccc(C(C)=O)c3)C2)cc1", "note": "(centres undefined)", "Potency": "inconclusive [inhibitor, full curve, poor fit]"}, {"smiles": "COC(=O)C1=C(c2ccc(F)cc2OCc2ccccc2)C[C@@H]2CC[C@H]1N2C(=O)NCc1ccco1", "activity change, negative = inhibition": "inactive: 1.66%"}, {"smiles": "Cc1c(C(=O)NCC(C)C)sc2nc(-c3ccc(F)cc3)cn12", "Potency": "inconclusive [inhibitor, partial curve]"}, {"smiles": "CCOCCn1c(CN2CCN(CC)CC2)nc2c1c(=O)n(C)c(=O)n2C", "Potency": "inconclusive [inhibitor, full curve, poor fit]"}, {"smiles": "O=C(CCl)Nc1cc(S(=O)(=O)N2CCCCCC2)ccc1Cl", "activity change, negative = inhibition": "inactive: -3.69%"}, {"smiles": "COc1ccc(-c2c(C)nc(N)nc2-c2ccc(OCc3ccc(C)cc3)cc2O)cc1OC", "Potency": "inconclusive [inhibitor, full curve, poor fit]"}, {"smiles": "O=C(Nc1nccs1)c1ccc(COc2ccccc2)o1", "activity change, negative = inhibition": "inactive: 3.76%"}, {"smiles": "COc1ccc(-c2nc(NC(=O)c3n[nH]c(=O)c4ccccc34)sc2C)cc1", "activity change, negative = inhibition": "inactive: 0.633%"}, {"smiles": "CCOc1ccc(C(C(=O)NCC2CCCO2)N(C(=O)c2snc(C(N)=O)c2N)c2ccc(F)cc2)cc1", "note": "(centres undefined)", "activity change, negative = inhibition": "inactive: 0.683%"}, {"smiles": "C=CCN(C(=O)CSc1nnnn1C)c1nc(-c2ccccc2)cs1", "Potency": "inconclusive [inhibitor, full curve, poor fit]"}, {"smiles": "CCCCCCCCNC(=O)CC(NS(=O)(=O)c1ccc(NC(C)=O)cc1)C(C)C", "note": "(centres undefined)", "Potency": "inconclusive [inhibitor, full curve, poor fit]"}, {"smiles": "CCC(=O)c1ccc(OCCN2CCOCC2)cc1", "Potency": "inconclusive [inhibitor, full curve]"}, {"smiles": "O=C(Nc1cccnc1)c1c(O)c2c(n(Cc3ccccc3)c1=O)CCCC2", "Potency": "inconclusive [inhibitor, full curve, poor fit]"}, {"smiles": "O=C1N=c2ccc(Br)cc2=C1c1sc(=S)n(NS(=O)(=O)c2ccccc2)c1O", "activity change, negative = inhibition": "inactive: 2.74%"}, {"smiles": "Cc1ccc(C)c(C(=O)C(C)OC(=O)CN2C(=O)NC3(CC(C)CC(C)(C)C3)C2=O)c1", "note": "(centres undefined)", "Potency": "inconclusive [inhibitor, single point]"}, {"smiles": "Cc1oc2c(c1C(=O)NCCO)CCCC2", "Potency": "inconclusive [inhibitor, single point]"}, {"smiles": "O=C(NCCc1c[nH]c2ccccc12)C1CCC(Cn2c(=S)[nH]c3ccccc3c2=O)CC1", "note": "(centres undefined)", "activity change, negative = inhibition": "inactive: 1.79%"}, {"smiles": "C[N+]12CCC(CC1)C(C#N)(N1CCOCC1)C2", "note": "(centres undefined)", "Potency": "inconclusive [inhibitor, partial curve, poor fit]"}, {"smiles": "COc1ccc(NC(=O)Nc2ccc3nsnc3c2)cc1", "Potency": "inconclusive [inhibitor, partial curve, poor fit]"}, {"smiles": "CCc1ccc(C(=O)NNc2ccccc2F)cc1", "activity change, negative = inhibition": "inactive: -4.87%"}, {"smiles": "O=C(CSc1n[nH]c(-c2cccnc2)n1)Nc1ccccc1", "Potency": "inconclusive [inhibitor, partial curve, poor fit]"}, {"smiles": "CCC1CN(C(=O)N2CCC(C(=O)N3CCN(c4ccccc4F)CC3)CC2)c2ccccc2O1", "note": "(centres undefined)", "activity change, negative = inhibition": "inactive: -5.16%"}, {"smiles": "O=P(CCC(F)(F)F)(CCC(F)(F)F)CCC(F)(F)F", "Potency": "inconclusive [inhibitor, single point]"}, {"smiles": "COc1ccc(CC(=O)Nc2cc(C)ccn2)cc1", "activity change, negative = inhibition": "inactive: 0.893%"}, {"smiles": "CCOc1c(Cl)cc(C(=O)N(Cc2ccc(N(C)C)cc2)Cc2ccco2)cc1Cl", "activity change, negative = inhibition": "inactive: 20.3%"}]}]}
